Among all 16,000 compounds or so, about 120 (0.75%) were called active. Roughly 4% stayed inconclusive and do not appear here. Calls follow the shape of the dose curve; as a rule, active = well fitted inhibition curve with a large enough effect; inconclusive = small, poorly fitted or top-dose-only effect; inactive = no such curve, though single readings can be large or run the other way. The list shows a part of the results. Where a SMILES comes first, the peptide text is derived from it.

Chain of UniProt O95398 (O95398 whole entry, looked up): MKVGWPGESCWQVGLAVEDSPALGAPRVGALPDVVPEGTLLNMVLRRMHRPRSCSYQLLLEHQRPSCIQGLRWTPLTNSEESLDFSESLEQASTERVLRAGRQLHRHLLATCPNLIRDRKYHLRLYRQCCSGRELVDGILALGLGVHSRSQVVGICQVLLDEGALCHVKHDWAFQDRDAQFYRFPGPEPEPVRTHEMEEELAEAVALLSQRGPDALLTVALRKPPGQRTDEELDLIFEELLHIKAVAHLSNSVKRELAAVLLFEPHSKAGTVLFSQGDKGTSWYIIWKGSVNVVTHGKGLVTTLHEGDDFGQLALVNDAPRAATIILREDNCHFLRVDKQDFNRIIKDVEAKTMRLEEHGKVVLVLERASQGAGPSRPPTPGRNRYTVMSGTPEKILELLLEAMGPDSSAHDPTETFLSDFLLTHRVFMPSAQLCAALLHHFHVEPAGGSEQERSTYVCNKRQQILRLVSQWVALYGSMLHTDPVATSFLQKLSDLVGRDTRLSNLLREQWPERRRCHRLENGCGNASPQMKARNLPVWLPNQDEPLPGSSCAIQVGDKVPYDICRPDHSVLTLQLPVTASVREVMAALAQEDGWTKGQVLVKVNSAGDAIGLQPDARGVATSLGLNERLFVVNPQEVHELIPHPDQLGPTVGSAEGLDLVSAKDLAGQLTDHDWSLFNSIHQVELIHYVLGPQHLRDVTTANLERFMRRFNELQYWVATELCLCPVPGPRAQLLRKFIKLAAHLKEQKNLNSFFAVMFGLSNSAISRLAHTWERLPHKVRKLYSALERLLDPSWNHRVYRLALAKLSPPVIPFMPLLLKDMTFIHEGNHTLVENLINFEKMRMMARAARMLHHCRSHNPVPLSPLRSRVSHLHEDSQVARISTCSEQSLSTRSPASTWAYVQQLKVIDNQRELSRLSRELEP

The assay concerns the target Rap guanine nucleotide exchange factor 3 (Homo sapiens) (UniProt O95398). Nature of the assay: Validation qHTS for antagonist of cAMP-regulated guanine nucleotide exchange factor 3 (EPAC1). Also: nearly all actives have a fitted effect of over 75% in size. Conditions: EPAC1 Rap1B-BODIPY-GDP exchange, fluorescence; series mostly up to 150 µM; activity change, negative = inhibition: at the top concentration. The source says:
Assay Provider (PI): Xiaodong Cheng Ph.D.
The University of Texas Medical Branch, […], TX
In multi-cellular eukaryotic organisms, the effects of cAMP are transduced by two ubiquitously-expressed intracellular cAMP receptors, the classic protein kinase A/cAMP-dependent protein kinase (PKA/cAPK) and the more recently discovered exchange protein directly activated by cAMP/cAMP-regulated guanine nucleotide exchange factor (EPAC/cAMP-GEF). Both PKA and EPAC are ubiquitously expressed in all tissues, and an increase in intracellular cAMP levels will lead to the activation of both PKA and EPAC. Therefore, careful dissections of the individual role and relative contribution of EPAC and PKA within the overall cAMP signaling in various model systems are critical for further elucidating the mechanism of cAMP signaling. To date no EPAC-specific antagonists and agonist, as well as isoform-specific agonists have been reported, and developing EPAC-specific pharmacological probes to determine the physiological functions that EPAC play in the overall cAMP-mediated signaling remains a major challenge within the research field. Furthermore, identified regulators of EPAC may lead to new mechanism-based therapeutic strategies specifically targeting the EPAC / cAMP-signaling components as EPAC has been implicated to play important roles in major human pathological conditions such as diabetes, heart disease, and cancer.
This qHTS will be used to screen the Molecular Libraries Small Molecule Repository (MLSMR) as a concentration-titration series using the NCGC unique quantitative screening (qHTS) platform to find activators for EPAC1. In addition, this assay will also be used as a counterscreen for the EPAC2 qHTS. This fluorescent based assay is developed and validated for EPAC1 that measures exchange using EPAC effector Rap1 complex with BODIPY-GDP, a GDP analog with a tethered fluorophores. Activators are identified by monitoring the change in fluorescence signal as the exchanged free BODIPY-GDP has a reduced fluorescence compared to Rap1-bound BODIPY-GDP. Increase in signal (activation) is the desired outcome for the EPAC1 agonist while no activity in this assay is desired for the EPAC2 agonist counterscreen.
[1] de Rooij, J., Zwartkruis, F. J., Verheijen, M. H., Cool, R. H., Nijman, S. M., Wittinghofer, A., and Bos, J.L. (1998) Nature 396, 474-477.
Briefly, three uL of reagents (100 nM EPAC1, 250 nM RAP1B-BODIPY-GDP, 50 uM GDP) were dispensed into a 1536-well Greiner black solid-bottom medium binding assay plate. Controls and test compounds (23 nL) were transferred to the plate via a Kalypsys pin tool equipped with a 1536-pin array. The plates were centrifuged at 1,000 rpm for 15 seconds followed by 5 minute incubation at room temperature. The assay plates were read at 5 minute intervals for 30 minutes in the ViewLux plate reader using 480nm excitation and 540nm emission filters. The results were normalized to the […] positive control ATA and DMSO.
(In general: Quantitative high-throughput screening tests each substance at several concentrations.)
Consider `COc1cccc(-c2nc(NCc3ccccc3)c3ccccc3n2)c1`, for which the “activity change, negative = inhibition” value is inactive: -28.5%.

Regarding `C[C@@]12CCC3c4ccc(OS(=O)(=O)O)cc4CCC3C1CCC2O` (stereo not given in full), the “activity change, negative = inhibition” value was inactive: 12.4%.

Take `O=C(NCc1nnc2n1CCN(Cc1cccc(C(F)(F)F)c1)CC2)c1ccncc1`: the “activity change, negative = inhibition” value was inactive: 13.5%.

In the case of `COc1ccc([C@@H]2CNC(=O)C2)cc1OC1CCCC1`, the activity change, negative = inhibition result is “inactive”.

Regarding `CN(C)Cc1ccccc1-c1nc(NCc2ccccc2)c2ccccc2n1`, the “activity change, negative = inhibition” value was inactive: 7.84%.

As for `Cc1nc2cnc(N3CCOCC3)nc2n(C2CC2)c1=O`, the “activity change, negative = inhibition” value is inactive: 6.49%.

As for `Cc1noc(C)c1-c1nccc(NCc2cccnc2)n1`, the “activity change, negative = inhibition” value was inactive: 5.65%.

In the case of `CSc1nnc(CNC(=O)c2c(-c3ccccc3)noc2C)n1-c1ccc(F)cc1`, the “activity change, negative = inhibition” value is inactive: 5.72%.

As to `CCCCCCCCCC[n+]1ccc(/C=C/c2c[nH]c3ccccc23)cc1`, the “activity change, negative = inhibition” value is inactive: 80.5%.

On to `C#C[C@]1(OC(C)=O)CC[C@H]2[C@@H]3CCC4=C[C@@H](OC(C)=O)CC[C@@H]4[C@H]3CC[C@@]21C`, for which the “activity change, negative = inhibition” value was inactive: 7.07%.

Take `COC(=O)c1c(Cl)c(Cl)c(C(=O)OC)c(Cl)c1Cl`: the activity change, negative = inhibition result was “inactive”.

Turning to `C/C=C(/C)C(=O)OC1C(OC(C)=O)[C@@]2(CO)C(O)C[C@@]3(C)C(=CCC4[C@@]5(C)CCC(OC6OC(C(=O)O)[C@@H](O[C@@H]7OC(CO)C(O)C(O)C7O)C(O)[C@H]6O[C@@H]6OC(CO)C(O)C(O)C6O)[C@](C)(CO)C5CC[C@@]43C)C2CC1(C)C` (stereo not given in full), the “activity change, negative = inhibition” value is inactive: 14.9%.

As to `COc1cccc(Nc2ncc3nc(-c4ccc(Cl)cc4)c(=O)n(C[C@H]4CCCO4)c3n2)c1`, the “activity change, negative = inhibition” value was inactive: 34.6%.

On to `N[C@H]1CCN(O)C1=O`, for which the “activity change, negative = inhibition” value is inactive: 6.43%.

With `COc1ccc2[nH]cc(CCNc3ccnc(-c4ccc(N(C)C)cc4)n3)c2c1`, the “activity change, negative = inhibition” value was inactive: -9.06%.

As for `O=C(c1cnccn1)N1CCC2(CC1)CCN(C(c1ccccc1)c1ccccc1)CC2`, the “activity change, negative = inhibition” value was inactive: -0.511%.

As to `CC(=O)OC1CC2C(C)(C)C(=O)C=C[C@]2(C)C2CC[C@@]3(C)C(c4ccoc4)OC(=O)C4O[C@@]43[C@]12C` (stereo not given in full), the “activity change, negative = inhibition” value was inactive: 10.2%.

For `CO[C@]1(C2=NCCN2)COc2ccccc2O1`, the “activity change, negative = inhibition” value is inactive: 6.71%.

On to `Cc1cc(C(C)(C)CC(C)(C)C)ccc1OCCOCC[N+](C)(C)Cc1ccccc1`, for which the “activity change, negative = inhibition” value was inactive: 2.57%.

As for `CC(=O)N[C@@H](CC(=O)O)C(=O)N[C@@H](CCC(=O)O)C(=O)O` (Ac-Asp-Glu-OH), the “activity change, negative = inhibition” value is inactive: 4.52%.

On to `CCC(C)[C@H]1COCCS(=O)(=O)N1Cc1ccc(C)cc1` (stereo not given in full), for which the “activity change, negative = inhibition” value is inactive: -15.6%.

For `COCCn1c(=O)c(-c2cc(F)cc(F)c2)nc2cnc(Nc3cccc(OC)c3)nc21`, the “activity change, negative = inhibition” value was inactive: 41.1%.

As for `Cc1cc(NC(=O)C2=C(O)c3ccccc3S(=O)(=O)N2C)no1`, the “activity change, negative = inhibition” value was inactive: 15.7%.

Take `CC(C)(CO)NC(=O)c1cnn(-c2nccc(-c3ccc4c(c3)OCO4)n2)c1C1CC1`: the “activity change, negative = inhibition” value was inactive: 13.9%.

In the case of `CC(CCC(=O)O)C1CCC2C3CC[C@H]4CC(O)CC[C@@]4(C)C3CC(O)[C@]12C` (stereo not given in full), the “activity change, negative = inhibition” value is inactive: 5.59%.

For the origin of these results see PubChem BioAssay AID1645882 (National Center for Advancing Translational Sciences (NCATS), 2021).
